Test results as given in ChEMBL document CHEMBL4888484, “Replenishing the malaria drug discovery pipeline: Screening and hit evaluation of the MMV Hit Generation Library 1 (HGL1) against asexual blood stage Plasmodium falciparum ,using a nano luciferase reporter read-out” (2022).
Screen size: about 150,000 compounds; about 540 (0.36%) showed an effect of 50% or more. This is one part of the list.

Tested on: Plasmodium falciparum
Assay: Primary screen in NF54 nanoGlo assay, in single point, at 2uM, 72h; a lower Z score goes with more inhibition
Type: functional, Erythrocyte
Settings: timepoint 72 hour

Going from `CCN(C(=O)c1ccc(Cl)cc1OC)c1ccncc1` to `CCC(=O)Nc1ccc(NC(=O)c2ccnnc2)cc1Cl`, the “% Inhibition” value rises from -7% to -6%.

Going from `Cc1cc(OCC(=O)NC2CCC(C)CC2)nnc1C` (centres undefined) to `CCC(OC1CCCC(C)C1)C(=O)Nc1cncnc1N(C)C` (centres undefined), the “% Inhibition” value falls from 2% to 1%.

First: CCc1nc([C@@H]2C[C@@H](O)CN2C(=O)OCC2CCCCC2)n[nH]1
Second: CN(C)Cc1cccc(C(=O)N2CCC[C@H]2C2CCCCC2)c1
The “% Inhibition” value of the first is higher: -6% for the first, -7% for the second.

Compared with `CCC(F)(F)C(C)(C)CS(=O)(=O)N1CCC2C(CCC(=O)N2C2CC2)C1` (centres undefined), `CCS(=O)(=O)N1CCC2(CC1)C[C@@H](Cc1cccc(F)c1)CCO2` is higher in “% Inhibition” value: -13% for the first, -8% for the second.

Going from `COc1ccc(S(=O)(=O)NC[C@H]2O[C@@H](CO)[C@@H](O)[C@H]2N2CCC(C)CC2)cc1` to `COc1nccc2c(NC(=O)N3CCC4C3CCCN4C)cccc12` (centres undefined), the “% Inhibition” value falls from 13% to 4%.

First: COc1ccc([C@@H]2NC(=O)c3c(nc4c(cnn4-c4ccccc4)c3C)N2)cc1
Second: O=C1C[C@H](c2ccc(O)cc2)c2c(c(C(=O)O)cn2-c2ccccc2F)N1
The “% Inhibition” value of the first is higher: -38% for the first, -39% for the second.

Compared with `O=C(Nc1cc(S(=O)(=O)N2CCCC2)ccc1Cl)c1cc2c(s1)CCC2`, `O=C(Nc1ccccc1N1CCOCC1)c1ccc(S(=O)(=O)N2CCOCC2)cc1` is lower in “% Inhibition” value: 8% for the first, 2% for the second.

Going from `Cc1csc(CN2C(=O)N[C@]3(CC(C)(C)OC3(C)C)C2=O)n1` to `Cc1ccc(-c2csc(N3C(=O)CC4CS(=O)(=O)CC43)n2)cc1C` (centres undefined), the “% Inhibition” value rises from -2% to 38%.

Going from `CCOc1ccc(C(=O)N2CCN(c3cc(=O)n(C(C)C)c(=O)n3C(C)C)CC2)cc1OCC` to `COc1cc(C(=O)N2CCC(C(=O)NC(C)(C)C)CC2)cc(OC)c1OCc1ccccc1`, the “% Inhibition” value rises from -11% to -5%.

Going from `COCCN1C[C@@H](Cc2cccc3ccccc23)CC1=O` to `COc1ccccc1Cc1nnc(NS(=O)(=O)Cc2ccccc2)s1`, the “% Inhibition” value falls from -7% to -9%.

First: c1cncc(-c2csc(N3CCC[C@@H](CN4CCOCC4)C3)n2)c1
Second: O=C(N[C@H](c1cccs1)C1CCOCC1)c1nc(-c2cccs2)cs1
The “% Inhibition” value of the first is lower: -4% for the first, 6% for the second.

Compared with `CCCn1c(C)cnc1CCNS(=O)(=O)CC`, `CC(=O)Nc1c(C)cc(C)cc1C(=O)O` is higher in “% Inhibition” value: -1% for the first, 9% for the second.

First: Cc1ccc([C@@H](CC(=O)NCCC(c2ccccc2)c2ccccc2)c2c[nH]c3ccccc23)c(C)c1
Second: CC1C(c2ccccc2)NC(c2ccccc2)CC1(O)c1ccc(F)cc1 (centres undefined)
The “% Inhibition” value of the first is lower: -12% for the first, -3% for the second.

Going from `Cc1ccc(C(=O)NCC2(Cn3ccnc3)CC2)n1C(F)F` to `Cn1nc(C2CCOCC2)cc1C(=O)NCCc1cccc(Cl)c1`, the “% Inhibition” value falls from -15% to -23%.

Compared with `CC(=O)C1CN(c2nc(C)cc(C(F)(F)F)n2)C1`, `CCOc1ccccc1NC(=O)[C@H]1CCCN(c2nc(C)nc3oc(C)c(C)c23)C1` is lower in “% Inhibition” value: 4% for the first, -3% for the second.

Compared with `CC(C)OCC(=O)Nc1ccc(F)c(C(=O)OC(C)(C)C)c1Cl`, `O=C(COC(=O)c1c(F)cccc1Cl)Nc1ccc2c(c1)OCCCO2` is higher in “% Inhibition” value: -14% for the first, -2% for the second.

Going from `N#Cc1ccc(Br)c(CN2CCS(=O)(=O)C[C@H]2C2CC2)c1` to `O=S1(=O)C[C@@H]2[C@H](C1)N(c1ncccn1)CCN2Cc1nc(-c2ccco2)no1`, the “% Inhibition” value rises from -12% to -10%.

First: O=C(N[C@H]1CCN(C2CCCCCC2)C1)c1cc(F)ccc1F
Second: CNC(=O)[C@H](C1CCCC1)N1CCN(C(=O)c2ccc(Cl)cc2)CC1
The “% Inhibition” value of the first is lower: 0% for the first, 6% for the second.

Compared with `C[C@@H](COCC(F)(F)F)NC(=O)N(C)CC1CCC1`, `Cc1cc2c(c(-c3nc4ccccc4s3)c1)O[C@@H](CNC(=O)CCC(F)(F)F)C2` is higher in “% Inhibition” value: -4% for the first, 7% for the second.

Going from `CC(C)CN1CC2CN(C(=O)C(c3ccncc3)C(C)C)CCN2C1=O` (centres undefined) to `Cc1oc(C(C)C)cc1C(=O)N1C[C@@H]2CC[C@H]1CN(C(=O)c1ccncc1)C2`, the “% Inhibition” value falls from -6% to -7%.

Compared with `CCn1ccc(C(=O)N2CCC[C@H]2c2nc(-c3ccccc3OC)no2)n1`, `COc1ccccc1[C@@H]1CNC(=O)c2nc(-c3ncn[nH]3)[nH]c2C1` is higher in “% Inhibition” value: -11% for the first, -9% for the second.

Compared with `Cc1cnn(C2CN(CC(=O)N3CC(C)OC(C)C3)C2)c1` (centres undefined), `NC(=O)[C@@H]1CCCCN1C(=O)Cn1ccc(C(F)F)n1` is higher in “% Inhibition” value: -7% for the first, 1% for the second.

Going from `O=C(NCCc1ncc[nH]1)[C@@H]1[C@H]2[C@@H]3CC[C@@H](C3)[C@@H]12` to `O=C(Nc1cnsc1)c1ccoc1C1CC1`, the “% Inhibition” value rises from -11% to 6%.

Compared with `C[C@@H](C1CC1)N(Cc1ccccc1)S(=O)(=O)c1ccc(Cl)cc1`, `CC(C)N1CCC(NC(=O)CN2CCCN(Cc3ccccc3)c3ccccc32)CC1` is higher in “% Inhibition” value: -1% for the first, 0% for the second.

First: CCc1nnsc1C(=O)Nc1cnns1
Second: CC(C)CN(Cc1c(-c2ccccc2)noc1N1CCC(C)CC1)C(=O)c1ccc(F)cc1
The “% Inhibition” value of the first is lower: -3% for the first, 1% for the second.

First: O=S(=O)(NCC1(N2CCOCC2)CCCCC1)N1CCCCC1
Second: O=C(c1ccc(-c2ccc3c(c2)OCCO3)s1)N1CCCCCCC1
The “% Inhibition” value of the first is higher: -5% for the first, -46% for the second.

First: CCN(C(=O)c1ccc(Cl)cc1OC)c1ccncc1
Second: CCC(=O)Nc1ccc(NC(=O)c2ccnnc2)cc1Cl
The Z score of the first is higher: 0.98 for the first, 0.87 for the second.

Compared with `Cc1cc(OCC(=O)NC2CCC(C)CC2)nnc1C` (centres undefined), `CCC(OC1CCCC(C)C1)C(=O)Nc1cncnc1N(C)C` (centres undefined) is higher in Z score: -0.32 for the first, -0.21 for the second.

`CCc1nc([C@@H]2C[C@@H](O)CN2C(=O)OCC2CCCCC2)n[nH]1` and `CN(C)Cc1cccc(C(=O)N2CCC[C@H]2C2CCCCC2)c1` are the same in Z score: 1.06 for the first, 1.06 for the second.

First: CCC(F)(F)C(C)(C)CS(=O)(=O)N1CCC2C(CCC(=O)N2C2CC2)C1 (centres undefined)
Second: CCS(=O)(=O)N1CCC2(CC1)C[C@@H](Cc1cccc(F)c1)CCO2
The Z score of the first is higher: 2.02 for the first, 1.52 for the second.

Compared with `COc1ccc(S(=O)(=O)NC[C@H]2O[C@@H](CO)[C@@H](O)[C@H]2N2CCC(C)CC2)cc1`, `COc1nccc2c(NC(=O)N3CCC4C3CCCN4C)cccc12` (centres undefined) is higher in Z score: -1.49 for the first, -0.59 for the second.

First: COc1ccc([C@@H]2NC(=O)c3c(nc4c(cnn4-c4ccccc4)c3C)N2)cc1
Second: O=C1C[C@H](c2ccc(O)cc2)c2c(c(C(=O)O)cn2-c2ccccc2F)N1
The Z score of the first is lower: 4.45 for the first, 4.61 for the second.

First: O=C(Nc1cc(S(=O)(=O)N2CCCC2)ccc1Cl)c1cc2c(s1)CCC2
Second: O=C(Nc1ccccc1N1CCOCC1)c1ccc(S(=O)(=O)N2CCOCC2)cc1
The Z score of the first is lower: -0.99 for the first, -0.26 for the second.

First: Cc1csc(CN2C(=O)N[C@]3(CC(C)(C)OC3(C)C)C2=O)n1
Second: Cc1ccc(-c2csc(N3C(=O)CC4CS(=O)(=O)CC43)n2)cc1C (centres undefined)
The Z score of the first is higher: 0.41 for the first, -5.15 for the second.

Going from `CCOc1ccc(C(=O)N2CCN(c3cc(=O)n(C(C)C)c(=O)n3C(C)C)CC2)cc1OCC` to `COc1cc(C(=O)N2CCC(C(=O)NC(C)(C)C)CC2)cc(OC)c1OCc1ccccc1`, the Z score falls from 1.79 to 0.96.

Going from `COCCN1C[C@@H](Cc2cccc3ccccc23)CC1=O` to `COc1ccccc1Cc1nnc(NS(=O)(=O)Cc2ccccc2)s1`, the Z score rises from 1.39 to 1.67.

Compared with `c1cncc(-c2csc(N3CCC[C@@H](CN4CCOCC4)C3)n2)c1`, `O=C(N[C@H](c1cccs1)C1CCOCC1)c1nc(-c2cccs2)cs1` is lower in Z score: 0.51 for the first, -0.82 for the second.

First: CCCn1c(C)cnc1CCNS(=O)(=O)CC
Second: CC(=O)Nc1c(C)cc(C)cc1C(=O)O
The Z score of the first is higher: 0.06 for the first, -0.99 for the second.

Going from `Cc1ccc([C@@H](CC(=O)NCCC(c2ccccc2)c2ccccc2)c2c[nH]c3ccccc23)c(C)c1` to `CC1C(c2ccccc2)NC(c2ccccc2)CC1(O)c1ccc(F)cc1` (centres undefined), the Z score falls from 1.14 to 0.5.

First: Cc1ccc(C(=O)NCC2(Cn3ccnc3)CC2)n1C(F)F
Second: Cn1nc(C2CCOCC2)cc1C(=O)NCCc1cccc(Cl)c1
The Z score of the first is lower: 1.93 for the first, 2.94 for the second.

Compared with `CC(=O)C1CN(c2nc(C)cc(C(F)(F)F)n2)C1`, `CCOc1ccccc1NC(=O)[C@H]1CCCN(c2nc(C)nc3oc(C)c(C)c23)C1` is higher in Z score: -0.5 for the first, 0.35 for the second.

Compared with `CC(C)OCC(=O)Nc1ccc(F)c(C(=O)OC(C)(C)C)c1Cl`, `O=C(COC(=O)c1c(F)cccc1Cl)Nc1ccc2c(c1)OCCCO2` is lower in Z score: 1.82 for the first, 0.28 for the second.

First: N#Cc1ccc(Br)c(CN2CCS(=O)(=O)C[C@H]2C2CC2)c1
Second: O=S1(=O)C[C@@H]2[C@H](C1)N(c1ncccn1)CCN2Cc1nc(-c2ccco2)no1
The Z score of the first is higher: 1.19 for the first, 0.91 for the second.

First: O=C(N[C@H]1CCN(C2CCCCCC2)C1)c1cc(F)ccc1F
Second: CNC(=O)[C@H](C1CCCC1)N1CCN(C(=O)c2ccc(Cl)cc2)CC1
The Z score of the first is higher: -0.03 for the first, -0.99 for the second.

Going from `C[C@@H](COCC(F)(F)F)NC(=O)N(C)CC1CCC1` to `Cc1cc2c(c(-c3nc4ccccc4s3)c1)O[C@@H](CNC(=O)CCC(F)(F)F)C2`, the Z score falls from 0.53 to -0.9.

First: CC(C)CN1CC2CN(C(=O)C(c3ccncc3)C(C)C)CCN2C1=O (centres undefined)
Second: Cc1oc(C(C)C)cc1C(=O)N1C[C@@H]2CC[C@H]1CN(C(=O)c1ccncc1)C2
The Z score of the first is lower: 1.01 for the first, 1.2 for the second.

First: CCn1ccc(C(=O)N2CCC[C@H]2c2nc(-c3ccccc3OC)no2)n1
Second: COc1ccccc1[C@@H]1CNC(=O)c2nc(-c3ncn[nH]3)[nH]c2C1
The Z score of the first is lower: 1.67 for the first, 1.73 for the second.

Compared with `Cc1cnn(C2CN(CC(=O)N3CC(C)OC(C)C3)C2)c1` (centres undefined), `NC(=O)[C@@H]1CCCCN1C(=O)Cn1ccc(C(F)F)n1` is lower in Z score: 0.93 for the first, -0.2 for the second.

First: O=C(NCCc1ncc[nH]1)[C@@H]1[C@H]2[C@@H]3CC[C@@H](C3)[C@@H]12
Second: O=C(Nc1cnsc1)c1ccoc1C1CC1
The Z score of the first is higher: 1.44 for the first, -0.76 for the second.

Going from `C[C@@H](C1CC1)N(Cc1ccccc1)S(=O)(=O)c1ccc(Cl)cc1` to `CC(C)N1CCC(NC(=O)CN2CCCN(Cc3ccccc3)c3ccccc32)CC1`, the Z score falls from 0.17 to -0.05.

Compared with `CCc1nnsc1C(=O)Nc1cnns1`, `CC(C)CN(Cc1c(-c2ccccc2)noc1N1CCC(C)CC1)C(=O)c1ccc(F)cc1` is lower in Z score: 0.42 for the first, -0.14 for the second.

First: O=S(=O)(NCC1(N2CCOCC2)CCCCC1)N1CCCCC1
Second: O=C(c1ccc(-c2ccc3c(c2)OCCO3)s1)N1CCCCCCC1
The Z score of the first is lower: 0.85 for the first, 4.1 for the second.
